Source: paper PMC10604658
Results are given in words; binding and its absence hold for the method and conditions named. In cells and extracts the contact can be indirect. Some binding calls cover weakened binding; strength is not graded here. Sequences can lack the tags named with a protein.

Chains of the proteins cited; added tags and fusions are not shown.
UniProt Q6GQQ9: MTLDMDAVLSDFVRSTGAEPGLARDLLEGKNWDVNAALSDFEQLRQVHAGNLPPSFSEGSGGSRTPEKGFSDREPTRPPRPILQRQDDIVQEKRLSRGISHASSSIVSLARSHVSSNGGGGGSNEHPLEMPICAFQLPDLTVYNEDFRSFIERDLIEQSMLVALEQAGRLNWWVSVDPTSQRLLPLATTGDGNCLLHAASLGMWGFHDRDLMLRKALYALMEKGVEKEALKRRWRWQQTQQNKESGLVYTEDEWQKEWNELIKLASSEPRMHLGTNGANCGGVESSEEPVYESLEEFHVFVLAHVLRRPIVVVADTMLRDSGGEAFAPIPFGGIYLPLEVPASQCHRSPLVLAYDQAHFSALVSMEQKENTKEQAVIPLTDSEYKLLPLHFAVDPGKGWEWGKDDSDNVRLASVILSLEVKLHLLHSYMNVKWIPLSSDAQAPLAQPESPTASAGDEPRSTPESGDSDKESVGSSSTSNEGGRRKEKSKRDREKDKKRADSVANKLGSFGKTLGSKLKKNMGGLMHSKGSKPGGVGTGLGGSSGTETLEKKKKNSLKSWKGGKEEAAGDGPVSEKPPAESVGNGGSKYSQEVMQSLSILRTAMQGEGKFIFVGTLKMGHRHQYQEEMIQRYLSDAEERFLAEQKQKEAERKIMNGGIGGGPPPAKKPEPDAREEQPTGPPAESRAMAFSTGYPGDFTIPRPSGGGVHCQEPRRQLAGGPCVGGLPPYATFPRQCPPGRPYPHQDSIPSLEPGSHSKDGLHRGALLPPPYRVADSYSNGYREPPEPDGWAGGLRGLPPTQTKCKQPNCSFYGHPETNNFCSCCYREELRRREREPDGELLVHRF

Experiments:
Experiment in all cases: pull-down; screen: HEK293T cells co-transfected with MYC-ETS2 and each of 59 SFB-tagged human DUBs; DUB pulled down with S-protein agarose beads from NETN lysate (100 mM NaCl, 0.05% NP-40), overnight at 4 °C; bound ETS2 detected by anti-MYC blot
SFB-OTUD7A (human) = target: T1, SFB-OTUD7A (human) (UniProt Q8TE49)
T1 sequence: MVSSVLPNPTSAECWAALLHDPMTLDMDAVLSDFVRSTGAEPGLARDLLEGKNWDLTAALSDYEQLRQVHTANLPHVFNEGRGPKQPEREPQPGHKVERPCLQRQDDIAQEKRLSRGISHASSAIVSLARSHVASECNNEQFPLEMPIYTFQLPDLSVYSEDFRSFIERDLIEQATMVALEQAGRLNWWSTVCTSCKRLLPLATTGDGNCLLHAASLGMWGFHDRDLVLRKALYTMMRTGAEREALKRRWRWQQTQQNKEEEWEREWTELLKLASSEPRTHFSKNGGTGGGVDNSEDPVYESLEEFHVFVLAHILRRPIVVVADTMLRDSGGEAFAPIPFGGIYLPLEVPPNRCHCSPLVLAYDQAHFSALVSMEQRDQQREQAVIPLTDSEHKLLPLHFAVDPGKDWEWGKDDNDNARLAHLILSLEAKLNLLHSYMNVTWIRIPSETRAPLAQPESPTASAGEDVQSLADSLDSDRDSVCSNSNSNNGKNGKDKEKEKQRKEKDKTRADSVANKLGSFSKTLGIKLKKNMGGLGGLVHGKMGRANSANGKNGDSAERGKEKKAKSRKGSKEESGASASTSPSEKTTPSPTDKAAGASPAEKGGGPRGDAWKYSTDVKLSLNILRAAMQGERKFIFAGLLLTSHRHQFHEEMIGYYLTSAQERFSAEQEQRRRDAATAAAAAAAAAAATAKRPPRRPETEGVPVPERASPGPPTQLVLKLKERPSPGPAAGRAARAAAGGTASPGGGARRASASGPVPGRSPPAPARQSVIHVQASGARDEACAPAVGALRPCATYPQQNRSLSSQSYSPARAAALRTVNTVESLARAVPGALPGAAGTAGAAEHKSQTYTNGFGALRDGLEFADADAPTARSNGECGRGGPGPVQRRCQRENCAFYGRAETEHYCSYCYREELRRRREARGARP

SFB-OTUD7B (human) = SFB-OTUD7B (human) (UniProt Q6GQQ9)
SFB-USP39 (human) = target: T2, SFB-USP39 (human) (UniProt Q53GS9)
T2 sequence: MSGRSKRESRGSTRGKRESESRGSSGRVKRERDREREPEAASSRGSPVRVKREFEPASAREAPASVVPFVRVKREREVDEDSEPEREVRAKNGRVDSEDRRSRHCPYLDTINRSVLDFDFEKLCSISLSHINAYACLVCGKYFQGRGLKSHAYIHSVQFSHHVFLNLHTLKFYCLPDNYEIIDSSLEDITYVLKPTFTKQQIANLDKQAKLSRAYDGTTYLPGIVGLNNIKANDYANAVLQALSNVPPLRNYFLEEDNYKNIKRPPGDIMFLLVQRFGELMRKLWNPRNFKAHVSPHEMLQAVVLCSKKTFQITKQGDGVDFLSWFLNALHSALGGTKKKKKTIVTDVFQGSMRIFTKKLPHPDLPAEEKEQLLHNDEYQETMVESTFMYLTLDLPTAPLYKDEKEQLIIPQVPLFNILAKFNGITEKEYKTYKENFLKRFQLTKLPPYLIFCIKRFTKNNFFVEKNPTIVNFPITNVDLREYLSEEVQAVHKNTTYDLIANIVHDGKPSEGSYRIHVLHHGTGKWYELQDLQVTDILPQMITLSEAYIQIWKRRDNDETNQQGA

SFB-USP44 (human) = target: T3, SFB-USP44 (human) (UniProt Q9H0E7)
T3 sequence: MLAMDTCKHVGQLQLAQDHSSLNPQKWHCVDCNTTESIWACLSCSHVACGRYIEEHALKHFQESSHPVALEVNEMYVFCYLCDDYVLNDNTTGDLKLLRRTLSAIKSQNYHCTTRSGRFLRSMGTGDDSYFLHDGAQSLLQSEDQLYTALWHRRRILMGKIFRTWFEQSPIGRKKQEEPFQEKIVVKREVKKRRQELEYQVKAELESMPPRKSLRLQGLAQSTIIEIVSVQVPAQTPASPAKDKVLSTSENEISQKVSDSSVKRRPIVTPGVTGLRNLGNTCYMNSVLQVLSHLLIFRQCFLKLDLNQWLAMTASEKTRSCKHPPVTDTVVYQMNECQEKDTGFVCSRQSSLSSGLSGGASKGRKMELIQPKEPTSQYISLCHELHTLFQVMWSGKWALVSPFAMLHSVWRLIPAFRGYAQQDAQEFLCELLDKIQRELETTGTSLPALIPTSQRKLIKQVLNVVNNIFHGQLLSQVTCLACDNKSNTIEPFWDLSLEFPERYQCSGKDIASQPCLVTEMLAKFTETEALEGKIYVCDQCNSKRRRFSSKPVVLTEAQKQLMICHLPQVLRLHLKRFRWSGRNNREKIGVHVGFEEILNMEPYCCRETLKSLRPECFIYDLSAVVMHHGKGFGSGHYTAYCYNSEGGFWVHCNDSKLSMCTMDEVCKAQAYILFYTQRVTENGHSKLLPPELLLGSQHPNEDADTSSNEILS

binding (SFB-OTUD7A (human)): binds | binding (SFB-OTUD7B (human)): binds | binding (SFB-USP39 (human)): binds | binding (SFB-USP44 (human)): binds
B1: MYC-ETS2 (protein, UniProt P15036 1-469)
chain: MNDFGIKNMDQVAPVANSYRGTLKRQPAFDTFDGSLFAVFPSLNEEQTLQEVPTGLDSISHDSANCELPLLTPCSKAVMSQALKATFSGFKKEQRRLGIPKNPWLWSEQQVCQWLLWATNEFSLVNVNLQRFGMNGQMLCNLGKERFLELAPDFVGDILWEHLEQMIKENQEKTEDQYEENSHLTSVPHWINSNTLGFGTEQAPYGMQTQNYPKGGLLDSMCPASTPSVLSSEQEFQMFPKSRLSSVSVTYCSVSQDFPGSNLNLLTNNSGTPKDHDSPENGADSFESSDSLLQSWNSQSSLLDVQRVPSFESFEDDCSQSLCLNKPTMSFKDYIQERSDPVEQGKPVIPAAVLAGFTGSGPIQLWQFLLELLSDKSCQSFISWTGDGWEFKLADPDEVARRWGKRKNKPKMNYEKLSRGLRYYYDKNIIHKTSGKRYVYRFVCDLQNLLGFTPEELHAILGVQPDTED
